In the supplement of paper PMC10126150:
Sequences with one replicate were seen in a single cluster, so their values are uncertain.

Test system: ATP
Experiment: switch fluorescence ratio, 500 uM ATP over buffer (Cy3 cluster intensity, sum of 5 cycles each) (fold (ratio)); higher = stronger signal-on switching upon ATP binding; sequences stand for … in TCGTCGGCAGCGTCAGATGTGTATAAGAGACAGTTTTTTTTTTTTTTTTTTTTTTTTT…TC
Conditions: aptamer strand: ATP DNA aptamer (quencher-CACCTGGGGGAGTATTGCGGAGGAAGG + anchor), 100 nM annealed; ATP concentration: 500 uM; one replicate
In short: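 Imaging in selection buffer was followed by imaging after 15 min with 500 uM ATP at 22 °C, for Cy3-labelled switching-strand clusters annealed to 100 nM quencher-labelled ATP aptamer on a modified Illumina MiSeq flow-cell. Five of these buffer/ATP cycles ran, separated by NaOH stripping and re-annealing. The fluorescence ratio per cluster is summed target-cycle over summed buffer-cycle Cy3 intensity, averaged per switch-domain sequence; clusters outside 100-1000 RFU were removed.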
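Note: ATP exposure 15 min at 22 °C before imaging.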

Row | Sequence | switch fluorescence ratio
1 | CAGGACTGAG | 1.02
2 | GGTTTTTAG | 0.99
3 | TGCGCAAGCT | 1.02
4 | TCAGCTTCTT | 0.994
5 | CGTGCGAGCC | 1.09
6 | GTTAGTATCG | 0.996
7 | GAAACAAGGC | 0.923
8 | TAGTAGTTCC | 1.06
9 | CTAGGATGTT | 0.979
10 | CTGAGGGTGA | 1.01
11 | GGACTGGTTA | 1.04
12 | TAGAGCACTA | 1.08
13 | TCACCTGCG | 1.09
14 | TCCAGACGCC | 1.65
15 | AGATATAGTT | 0.975
16 | CTAACGCTTT | 1.17
17 | AATCGCAAAA | 1.08
18 | GGGTCATAAG | 0.975
19 | ACTGCTGAAA | 0.957
20 | TCAAAAGCCG | 0.999
21 | CAACTAATGT | 0.963
22 | CGGATAAGGG | 0.998
23 | GGGATAAGCG | 0.979

Row | Sequence | switch fluorescence ratio
24 | CATTTTTTCT | 1.03
25 | GTAAAACGTA | 1.08
26 | ACTGATCCCA | 1.01
27 | AGGGCGGCAT | 0.988
28 | AAGCCAGCTG | 0.923
29 | AATACGATGT | 1
30 | CAGGGCCCAG | 1.03
31 | GGAGCGCAAT | 3.19
32 | GCGCATATCG | 1.1
33 | ATGTAATAAA | 1.02
34 | AGATATTATC | 1.07
35 | GCGAGACAGG | 1.13
36 | CTTCATAGC | 1.03
37 | CTAAGGCTTC | 1.01
38 | GAAATACAGG | 1.01
39 | CTAGGGCGAT | 1.02
40 | ACAGCTTGG | 1
41 | GGTAATCTAA | 1.01
42 | GGATCAGTTA | 0.982
43 | CCCTAAAGCC | 1.05
44 | GGTGTATTCA | 1
45 | CCTTTGTGAC | 1.49
46 | CTATGACCGT | 1.04

Row | Sequence | switch fluorescence ratio
47 | TAAGTGGTC | 1.04
48 | CGCGAATCTT | 0.992
49 | TGGACGGCGA | 1.15
50 | AACACTTCGC | 1.16
51 | GAGGTAAAA | 0.968
52 | TGGTCATCAA | 0.997
53 | GTGTAATTTC | 0.955
54 | ATATGCAGGT | 1.04
55 | GAAGCTAGGT | 1.06
56 | AGATACAGTA | 0.988
57 | TTCTGATTCT | 1.02
58 | TAGTACACTC | 1.04
59 | AGTCAAAGC | 0.97
60 | CGACCTGTCG | 1.08
61 | CTGGTCCCTG | 0.955
62 | ACTTCAGTCC | 0.996
63 | GCGGCTGCTT | 0.985
64 | GGATCGCGAT | 1.02
65 | ACAGTACTGC | 1.16
66 | CCGGAAATTA | 1.02
67 | TTCGGCATTG | 0.978
68 | CCACTGATGC | 1.31
69 | CCACGATACA | 1.94

Row | Sequence | switch fluorescence ratio
70 | AAATTCCCCG | 1.03
71 | GCACTATG | 0.967
72 | GCCCTCATGG | 1.03
73 | GAAGGAGTTC | 1.02
74 | CCATTTTAC | 1.31
75 | CGGGCTGAGC | 1.04
76 | GGATGGTCCT | 0.965
77 | GTTCTCCCTT | 1.01
78 | AGAAAGAAT | 0.991
79 | GCTGGCCCGG | 1.05
80 | GCCTTTTAGG | 0.967
81 | ACGAAAAATA | 0.934
82 | AAGGTTGCTT | 0.958
83 | CGAAGAAATA | 1.02
84 | AGCGCGCACG | 1.04
85 | CGCGACATGG | 0.984
86 | AACTCTGCCG | 0.909
87 | GGTCCACTTG | 0.956
88 | GATGCCCTTG | 0.988
89 | TCGTAAGGTA | 0.987
90 | TGATCGAGTC | 1.06
91 | TACTAGGCA | 1.01
92 | TCTGCTGGAC | 1.42

Row | Sequence | switch fluorescence ratio
93 | GGCACTGCGG | 1.01
94 | GTGACGTGCT | 0.922
95 | GTCGTCGTTG | 0.98
96 | CCTTGAGATC | 1.04
97 | TCAAAACGT | 1.07
98 | ACAAGGATC | 0.997
99 | CTTGGAAGGA | 0.985
100 | AGCGGTGTAG | 1.03
101 | TGATTAGCA | 1.01
102 | TGATGATAAT | 0.926
103 | ACAAACGATT | 1.24
104 | AAGATGCCCT | 1.03
105 | CGAGCTAACT | 1.46
106 | GTTATCCGC | 1.17
107 | TTTTATGTA | 0.993
108 | GAAGTTATGT | 0.98
109 | TGGTACGGCG | 0.99
110 | GTTAGGGTCA | 0.964
111 | AGACTGGGGT | 1.02
112 | CTGAGTTCA | 0.988
113 | CTTACTTTGA | 0.996
114 | TGGATTCCGG | 1.03
115 | ACAGTGACGG | 1.04

Row | Sequence | switch fluorescence ratio
116 | GGTACGCAGA | 1.01
117 | TGAATACGGA | 1.55
118 | AAATCGGAGT | 0.972
119 | CTGCTTGATT | 1.03
120 | AGATATCGTT | 1.01
121 | TTCAGACAC | 1.06
122 | AATCGGGCTT | 0.994
123 | TGCAAGTAAA | 1.04
124 | TGTTAGGAGG | 1.04
125 | GATCTGTTTG | 1.01
126 | CCCGCGTCCA | 1.33
127 | GTTCTATACT | 1.05
128 | ACGGCGTGCG | 0.993
129 | CAGATCTAGT | 0.983
130 | CTACGGTATG | 1.11
131 | GAAATTCTGC | 0.997
132 | AAGTATATAA | 0.994
133 | GATGTATGG | 0.987
134 | GGGTAGCTAA | 0.988
135 | CATTCGTAAG | 1.07
136 | CGCTAGCGCG | 0.983
137 | GGTTATGATG | 0.975
138 | GAACTATCAG | 0.995

Row | Sequence | switch fluorescence ratio
139 | CTGGGCAGTG | 1.04
140 | GTGCTGTATA | 0.966
141 | ACCCGGCTCA | 0.985
142 | TTGAAAACGC | 1.1
143 | ACTTGGACG | 1.03
144 | CCGGGAGATT | 1.05
145 | GCCTTGACTT | 0.984
146 | GTAGGGGGAT | 1.04
147 | CCGGGTGTCC | 1.5
148 | GTTCGGAACT | 1.03
149 | AAGGAGCG | 0.974
150 | AAAGCCGTGT | 1.04
151 | GCGGAAGGTT | 0.992
152 | CAAGTGCTGG | 0.979
153 | TTGCGGGTTA | 1.02
154 | TAAATCGGAT | 0.987
155 | ATCACTTCTA | 1.06
156 | TGTGGAACGG | 1.02
157 | GCCTAATCTT | 1.01
158 | AGCAGTTCTG | 1.07
